Results are given in words; binding and its absence hold for the method and conditions named. Binding seen in cells or lysates may run through a third protein. Some binding calls cover weakened binding; strength is not graded here.
Molecular target: FLAG-tagged ICE1 (interactor of little elongation complex ELL subunit 1) (UniProt Q9Y2F5)
Assay: co-IP; anti-FLAG agarose purification from nuclear extracts (prepared with Benzonase) of cells stably expressing FLAG-tagged proteins, elution with FLAG peptide; western blotting; parental 293FRT cells as control

By UniProt entry, the sequences of proteins in these tests, tags left out.
UniProt Q9Y2F5: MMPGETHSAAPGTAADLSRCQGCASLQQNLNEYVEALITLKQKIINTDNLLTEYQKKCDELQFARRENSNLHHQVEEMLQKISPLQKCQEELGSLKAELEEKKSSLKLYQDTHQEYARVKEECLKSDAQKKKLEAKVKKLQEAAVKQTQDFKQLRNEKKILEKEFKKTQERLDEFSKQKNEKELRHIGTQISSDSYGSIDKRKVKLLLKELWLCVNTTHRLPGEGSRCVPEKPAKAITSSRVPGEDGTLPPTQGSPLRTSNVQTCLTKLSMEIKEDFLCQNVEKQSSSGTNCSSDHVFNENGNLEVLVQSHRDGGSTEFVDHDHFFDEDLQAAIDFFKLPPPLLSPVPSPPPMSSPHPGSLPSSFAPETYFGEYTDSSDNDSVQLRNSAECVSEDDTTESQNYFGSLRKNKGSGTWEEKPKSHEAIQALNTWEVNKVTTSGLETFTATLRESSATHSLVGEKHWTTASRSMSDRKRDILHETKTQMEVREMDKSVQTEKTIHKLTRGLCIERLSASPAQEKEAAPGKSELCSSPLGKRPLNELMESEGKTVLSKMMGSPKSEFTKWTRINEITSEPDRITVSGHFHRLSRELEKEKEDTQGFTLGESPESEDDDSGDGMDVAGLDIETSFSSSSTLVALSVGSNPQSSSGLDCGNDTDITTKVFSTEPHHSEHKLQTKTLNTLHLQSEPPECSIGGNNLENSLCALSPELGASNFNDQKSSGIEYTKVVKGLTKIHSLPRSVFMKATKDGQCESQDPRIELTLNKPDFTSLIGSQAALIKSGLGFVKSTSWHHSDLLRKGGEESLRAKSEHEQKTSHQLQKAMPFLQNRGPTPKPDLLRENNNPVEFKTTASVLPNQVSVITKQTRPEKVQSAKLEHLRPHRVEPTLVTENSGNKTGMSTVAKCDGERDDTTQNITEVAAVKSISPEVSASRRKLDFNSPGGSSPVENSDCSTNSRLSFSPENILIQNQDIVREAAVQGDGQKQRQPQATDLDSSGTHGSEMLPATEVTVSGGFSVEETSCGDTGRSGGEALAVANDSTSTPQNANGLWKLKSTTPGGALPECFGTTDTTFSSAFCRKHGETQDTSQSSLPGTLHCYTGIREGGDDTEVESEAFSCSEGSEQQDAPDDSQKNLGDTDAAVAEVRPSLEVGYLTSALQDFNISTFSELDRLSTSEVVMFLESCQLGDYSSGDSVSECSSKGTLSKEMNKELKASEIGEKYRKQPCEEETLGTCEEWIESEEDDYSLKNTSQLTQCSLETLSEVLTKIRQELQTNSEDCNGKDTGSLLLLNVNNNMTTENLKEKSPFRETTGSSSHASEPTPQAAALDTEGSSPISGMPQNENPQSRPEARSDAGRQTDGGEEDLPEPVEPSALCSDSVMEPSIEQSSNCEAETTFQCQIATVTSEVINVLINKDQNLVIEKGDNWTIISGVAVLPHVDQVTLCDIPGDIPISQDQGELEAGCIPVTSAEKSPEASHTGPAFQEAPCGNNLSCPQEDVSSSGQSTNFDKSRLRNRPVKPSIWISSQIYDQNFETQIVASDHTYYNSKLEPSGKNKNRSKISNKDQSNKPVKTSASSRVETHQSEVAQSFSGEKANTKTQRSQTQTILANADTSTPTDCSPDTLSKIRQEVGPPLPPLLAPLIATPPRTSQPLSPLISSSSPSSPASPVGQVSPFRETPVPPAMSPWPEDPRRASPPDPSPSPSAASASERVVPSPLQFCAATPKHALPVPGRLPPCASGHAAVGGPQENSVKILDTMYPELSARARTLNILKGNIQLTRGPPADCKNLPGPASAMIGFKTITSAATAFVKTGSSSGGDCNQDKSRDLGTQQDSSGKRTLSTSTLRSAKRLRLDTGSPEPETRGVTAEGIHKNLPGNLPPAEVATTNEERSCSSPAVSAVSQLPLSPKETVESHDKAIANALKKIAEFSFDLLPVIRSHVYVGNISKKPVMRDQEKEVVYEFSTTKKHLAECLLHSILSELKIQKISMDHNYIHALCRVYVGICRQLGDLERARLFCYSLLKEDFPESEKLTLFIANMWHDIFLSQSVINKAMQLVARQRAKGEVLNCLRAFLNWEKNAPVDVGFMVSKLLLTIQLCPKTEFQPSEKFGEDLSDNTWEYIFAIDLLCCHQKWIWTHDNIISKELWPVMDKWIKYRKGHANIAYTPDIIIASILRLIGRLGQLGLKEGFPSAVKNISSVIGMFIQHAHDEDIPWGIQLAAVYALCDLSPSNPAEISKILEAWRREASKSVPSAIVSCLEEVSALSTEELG
UniProt Q9NV88: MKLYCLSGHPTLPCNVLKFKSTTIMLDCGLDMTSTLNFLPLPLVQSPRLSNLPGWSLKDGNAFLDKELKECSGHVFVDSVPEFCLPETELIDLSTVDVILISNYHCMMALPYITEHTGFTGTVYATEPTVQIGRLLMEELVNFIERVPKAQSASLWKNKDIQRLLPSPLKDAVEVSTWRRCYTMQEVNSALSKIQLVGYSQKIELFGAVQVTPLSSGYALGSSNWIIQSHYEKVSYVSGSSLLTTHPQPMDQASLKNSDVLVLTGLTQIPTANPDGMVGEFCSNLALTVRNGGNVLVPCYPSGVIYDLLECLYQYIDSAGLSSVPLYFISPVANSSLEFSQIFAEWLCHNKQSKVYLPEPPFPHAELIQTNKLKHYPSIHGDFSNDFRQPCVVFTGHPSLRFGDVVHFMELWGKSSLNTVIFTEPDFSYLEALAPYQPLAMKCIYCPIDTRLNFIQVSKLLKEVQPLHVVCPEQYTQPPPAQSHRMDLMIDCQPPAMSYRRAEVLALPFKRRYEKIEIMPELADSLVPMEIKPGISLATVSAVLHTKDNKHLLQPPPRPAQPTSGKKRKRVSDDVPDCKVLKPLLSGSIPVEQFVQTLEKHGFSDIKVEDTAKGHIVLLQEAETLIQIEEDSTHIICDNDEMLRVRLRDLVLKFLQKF

Row | binding | Molecule
1 | binds | INTS9 (from UniProt Q9NV88 1-658)
2 | binds | stem-loop-binding protein (SLBP) (from UniProt Q14493 1-270)
3 | binds | CPSF3 (CPSF73) (protein, UniProt Q9UKF6 1-684) MSAIPAEESDQLLIRPLGAGQEVGRSCIILEFKGRKIMLDCGIHPGLEGMDALPYIDLIDPAEIDLLLISHFHLDHCGALPWFLQKTSFKGRTFMTHATKAIYRWLLSDYVKVSNISADDMLYTETDLEESMDKIETINFHEVKEVAGIKFWCYHAGHVLGAAMFMIEIAGVKLLYTGDFSRQEDRHLMAAEIPNIKPDILIIESTYGTHIHEKREEREARFCNTVHDIVNRGGRGLIPVFALGRAQELLLILDEYWQNHPELHDIPIYYASSLAKKCMAVYQTYVNAMNDKIRKQININNPFVFKHISNLKSMDHFDDIGPSVVMASPGMMQSGLSRELFESWCTDKRNGVIIAGYCVEGTLAKHIMSEPEEITTMSGQKLPLKMSVDYISFSAHTDYQQTSEFIRALKPPHVILVHGEQNEMARLKAALIREYEDNDEVHIEVHNPRNTEAVTLNFRGEKLAKVMGFLADKKPEQGQRVSGILVKRNFNYHILSPCDLSNYTDLAMSTVKQTQAIPYTGPFNLLCYQLQKLTGDVEELEIQEKPALKVFKNITVIQEPGMVVLEWLANPSNDMYADTVTTVILEVQSNPKIRKGAVQKVSKKLEMHVYSKRLEIMLQDIFGEDCVSVKDDSILSVTVDGKTANLNLETRTVECEEGSEDDESLREMVELAAQRLYEALTPVH
